Several values for one entry are separate records, joined by “and”; a condition that tells them apart may be missing. Identical values can stand only once.
T1: VEGF (UniProt P15692-4 27-191, limits assumed)
T1 sequence (looked up): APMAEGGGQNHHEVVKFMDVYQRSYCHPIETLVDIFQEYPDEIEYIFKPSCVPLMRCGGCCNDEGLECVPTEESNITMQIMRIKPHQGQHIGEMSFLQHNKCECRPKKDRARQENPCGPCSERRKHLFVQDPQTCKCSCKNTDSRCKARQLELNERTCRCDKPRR


Legend:
Experiment in all cases: cell-based or functional assay
[1] = target: recombinant human IL-17A (R&D Systems) (human, UniProt Q16552 24-155)
UniProt Q16552, sequence (Q16552 24-155 limits assumed): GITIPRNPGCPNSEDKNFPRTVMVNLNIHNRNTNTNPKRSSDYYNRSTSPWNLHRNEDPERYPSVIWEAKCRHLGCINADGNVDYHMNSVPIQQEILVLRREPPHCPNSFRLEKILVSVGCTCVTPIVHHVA

VEGF [2] = target: T1, VEGF
VEGF [3] = target: T1, VEGF; remark: listed apart in the source

Row | Binder | IL-17A Bioassay Potency (IC50, nM) [1] | VEGF Bioassay Potency (IC50, nM) (VEGF [2]) | IC50, VEGF bioassay (RLU), column 'Approx. IC50 (nM)' of the legend (VEGF [3])
1 | 652.1 (Fc fusion) SDTGRPFVEMYSEIPEIIHMTEGRELVIPCRVTSPNITVTLKKFPLDTLIPDGKRIIWDSRKGFIISNATYKEIGLLTCEATVNGHLYKTNYLTHRQTNTIIDVVLSPSHGIELSVGEKLVLNCTARTELNVGIDFNWEYPSSKHQHKKLVNRDLKTQSGSEMKKFLSTLTIDGVTRSDQGLYTCAASSGLMTKKNSTFVRVHEK[human IgG1 Fc not given here]GGGSGGGGSEVQLVESGGGLVQPGGSLRLSCAASGFAFSSYDMSWVRQAPGKGLEWVAYISSGGGNTYYPDTVKGRFTISRDNAKNTLYLQMNSLRAEDTAVYYCAREALTMISTRDYYAMDYWGQGTLVTVSSGGGGSGGGGSGGGGSDIQLTQSPSSLSASVGDRVTITCGASESVDNYGISFMDWYQQKPGKAPKLLIYAASNQGSGVPSRFSGSGSGTDFTLTISSLQPEDFATYYCQQSKEVPYTFGQGTKVEIKR | 15.8 nM and 10.2 nM | 1.7 nM | –
2 | aflibercept (Fc fusion) SDTGRPFVEMYSEIPEIIHMTEGRELVIPCRVTSPNITVTLKKFPLDTLIPDGKRIIWDSRKGFIISNATYKEIGLLTCEATVNGHLYKTNYLTHRQTNTIIDVVLSPSHGIELSVGEKLVLNCTARTELNVGIDFNWEYPSSKHQHKKLVNRDLKTQSGSEMKKFLSTLTIDGVTRSDQGLYTCAASSGLMTKKNSTFVRVHEK[human IgG1 Fc not given here] | – | – | ~2.2 nM
